This passage reports MIC results from the supplement of paper PMC9927326.

The MIC is the least concentration at which growth counts as inhibited.

Assay in all cases: CLSI broth microdilution.
(In general: Dilution methods test growth across graded concentrations, often in twofold steps.)

Compound in one test: CCC(C)n1ncn(-c2ccc(N3CCN(c4ccc(OCC5COC(Cn6cncn6)(c6ccc(Cl)cc6Cl)O5)cc4)CC3)cc2)c1=O [itraconazole]
Compound in another test: C[C@@H]1[C@H](O)[C@@H](C)/C=C/C=C/C=C/C=C/C=C/C=C/C=C/[C@H](O[C@@H]2O[C@H](C)[C@@H](O)[C@H](N)[C@@H]2O)C[C@@H]2O[C@](O)(C[C@@H](O)C[C@@H](O)[C@H](O)CC[C@@H](O)C[C@@H](O)CC(=O)O[C@H]1C)C[C@H](O)[C@H]2C(=O)O [amphotericin B]
Compound in another test: Nc1[nH]c(=O)ncc1F [flucytosine]
Compound in the next test: CCCCCOc1ccc(-c2cc(-c3ccc(C(=O)N[C@H]4C[C@@H](O)[C@@H](O)NC(=O)[C@@H]5[C@@H](O)[C@@H](C)CN5C(=O)[C@H]([C@H](O)CC(N)=O)NC(=O)[C@H]([C@H](O)[C@@H](O)c5ccc(O)c(OS(=O)(=O)O)c5)NC(=O)[C@@H]5C[C@@H](O)CN5C(=O)[C@H]([C@@H](C)O)NC4=O)cc3)no2)cc1 [micafungin]
Compound in the next test: OC(Cn1cncn1)(Cn1cncn1)c1ccc(F)cc1F [fluconazole]
Compound in another test: C[C@@H](c1ncncc1F)[C@](O)(Cn1cncn1)c1ccc(F)cc1F [voriconazole]
Compound in the next test: CC[C@H](C)C[C@H](C)CCCCCCCCC(=O)N[C@H]1C[C@@H](O)[C@@H](NCCN)NC(=O)[C@@H]2[C@@H](O)CCN2C(=O)[C@H]([C@H](O)CCN)NC(=O)[C@H]([C@H](O)[C@@H](O)c2ccc(O)cc2)NC(=O)[C@@H]2C[C@@H](O)CN2C(=O)[C@H]([C@@H](C)O)NC1=O [caspofungin]
Compound in a further test: CCCCCOc1ccc(-c2ccc(-c3ccc(C(=O)N[C@H]4C[C@@H](O)[C@@H](O)NC(=O)[C@@H]5[C@@H](O)[C@@H](C)CN5C(=O)[C@H]([C@@H](C)O)NC(=O)[C@H]([C@H](O)[C@@H](O)c5ccc(O)cc5)NC(=O)[C@@H]5C[C@@H](O)CN5C(=O)[C@H]([C@@H](C)O)NC4=O)cc3)cc2)cc1 [anidulafungin]
Compound in a further test: CC[C@@H]([C@H](C)O)n1ncn(-c2ccc(N3CCN(c4ccc(OC[C@@H]5CO[C@@](Cn6cncn6)(c6ccc(F)cc6F)C5)cc4)CC3)cc2)c1=O [posaconazole]

MIC of clinical C. albicans isolates, CLSI broth microdilution (ranges and time not stated); higher = less susceptible. Call: susceptible or wild type [S] / resistant or non-wild type [R] by CLSI breakpoints or epidemiological cut-offs; intermediate and dose-dependent carry no call here (the paper groups them with resistant). '<=' and '>=' mark each drug's lowest and highest value, inferred; the source prints them plain. Isolates are numbered anew.

“Candida albicans isolate 84 (Erg11p: E266D, Fur1p: WT, Tac1p: N896S)”: the MIC with itraconazole is 0.03 mg/L [S]; in the test with amphotericin B, 0.5 mg/L [S]; with flucytosine, at most 0.06 mg/L [S]; in the test with micafungin it was at most 0.008 mg/L [S]; in the test with fluconazole it was 0.5 mg/L [S]; in the test with voriconazole, at most 0.008 mg/L [S]. Also, the MIC stood at 0.06 mg/L [S] with caspofungin, 0.12 mg/L [S] with anidulafungin and 0.015 mg/L [S] with posaconazole.

“Candida albicans isolate 85 (Erg11p: WT, Fur1p: WT, Tac1p: N896S)”: the MIC came out at 0.25 mg/L [R] with itraconazole; 0.5 mg/L [S] with amphotericin B; 0.12 mg/L [S] with flucytosine; 0.12 mg/L [S] with micafungin; 2 mg/L [S] with fluconazole; 0.03 mg/L [S] with voriconazole. The values for the MIC with caspofungin, with anidulafungin and with posaconazole were 0.12 mg/L [S], 0.12 mg/L [S] and 0.12 mg/L [R], respectively.

Consider “Candida albicans isolate 86 (Erg11p: V488I,E266D, Fur1p: WT, Tac1p: N896S,I895T,V279L)”, for which the MIC is at most 0.015 mg/L [S] with itraconazole; 0.5 mg/L [S] with amphotericin B; at most 0.06 mg/L [S] with flucytosine; 0.015 mg/L [S] in the test with micafungin; 0.5 mg/L [S] with fluconazole; at most 0.008 mg/L [S] with voriconazole. The minimal inhibitory concentration (MIC) was 0.03 mg/L [S] in the test with caspofungin, at most 0.015 mg/L [S] with anidulafungin and 0.015 mg/L [S] in the test with posaconazole.

Consider “Candida albicans isolate 87 (Erg11p: E266D,D153E, Fur1p: WT, Tac1p: 558V,A377V,F189S)”, for which the MIC in the test with itraconazole is 0.03 mg/L [S]; with amphotericin B it was 0.5 mg/L [S]; with flucytosine it was at most 0.06 mg/L [S]; with micafungin, at most 0.008 mg/L [S]; with fluconazole it was 0.25 mg/L [S]; with voriconazole, at most 0.008 mg/L [S]. Further, the MIC with caspofungin, with anidulafungin and with posaconazole was 0.03 mg/L [S] each time.

For “Candida albicans isolate 88 (Erg11p: V437I,E266D, Fur1p: WT, Tac1p: S937L,I895T,L695F,I558V,F189S,L131I)”, the MIC with itraconazole was at most 0.015 mg/L [S]; with amphotericin B, 0.5 mg/L [S]; in the test with flucytosine, at most 0.06 mg/L [S]; in the test with micafungin, at most 0.008 mg/L [S]; with fluconazole, 0.5 mg/L [S]; with voriconazole, at most 0.008 mg/L [S]. Also, the MIC with caspofungin came out at 0.03 mg/L [S]; with anidulafungin it was 0.06 mg/L [S]; with posaconazole, 0.015 mg/L [S].

In the case of “Candida albicans isolate 89 (Erg11p: E266D, Fur1p: WT, Tac1p: C908Y,A377V,N174D,M170I,I109N,K87N)”, the MIC with itraconazole was 0.03 mg/L [S]; in the test with amphotericin B, 1 mg/L [S]; with flucytosine, at most 0.06 mg/L [S]; in the test with micafungin, 0.015 mg/L [S]; in the test with fluconazole it was 0.25 mg/L [S]; in the test with voriconazole it was at most 0.008 mg/L [S]. Also, the figures for the MIC in the test with caspofungin, with anidulafungin and with posaconazole were 0.06 mg/L [S], 0.03 mg/L [S] and 0.015 mg/L [S], respectively.

On to “Candida albicans isolate 90 (Erg11p: WT, Fur1p: WT, Tac1p: N896S)”, for which the MIC in the test with itraconazole was at most 0.015 mg/L [S]; with amphotericin B, 0.25 mg/L [S]; in the test with flucytosine, at most 0.06 mg/L [S]; in the test with micafungin, at most 0.008 mg/L [S]; with fluconazole it was 0.25 mg/L [S]; with voriconazole, at most 0.008 mg/L [S]. Besides, the values for the MIC with caspofungin, in the test with anidulafungin and with posaconazole were 0.015 mg/L [S], at most 0.015 mg/L [S] and 0.015 mg/L [S], respectively.

With “Candida albicans isolate 91 (Erg11p: K342R,E266D, Fur1p: WT, Tac1p: I558V,A377V,F189S,N174D,M170I,K87N)”, the minimal inhibitory concentration (MIC) in the test with itraconazole was 0.03 mg/L [S]; with amphotericin B, 0.25 mg/L [S]; with flucytosine, at most 0.06 mg/L [S]; with micafungin, 0.015 mg/L [S]; with fluconazole, 0.25 mg/L [S]; with voriconazole, at most 0.008 mg/L [S]. The MIC amounted to 0.03 mg/L [S] in the test with caspofungin, 0.06 mg/L [S] in the test with anidulafungin and 0.015 mg/L [S] with posaconazole.
